Whole data set: some 110,000 compounds, median “z-score” near -0.1, cut for the highest 2% near 2. The list shows a part of the results. The source made the active and inactive calls.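 How the source made its calls: active means z-score in the third read window above 3 or below -3; inactive means the rest.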
These compounds were tested against Metabotropic glutamate receptor 8 (Rattus norvegicus) (UniProt P70579) (assay: rat mGluR8 modulators via GIRK flux, primary screen, cell-based, thallium flux, HTS (AID 488969)). Conditions: HEK293 rat mGluR8, GIRK (G protein-gated inwardly rectifying potassium channel) thallium flux, FluoZin2; at 10 µM; stronger effect = higher value; submaximal glutamate (EC20) added with thallium.
UniProt P70579, sequence (P70579 whole entry, looked up): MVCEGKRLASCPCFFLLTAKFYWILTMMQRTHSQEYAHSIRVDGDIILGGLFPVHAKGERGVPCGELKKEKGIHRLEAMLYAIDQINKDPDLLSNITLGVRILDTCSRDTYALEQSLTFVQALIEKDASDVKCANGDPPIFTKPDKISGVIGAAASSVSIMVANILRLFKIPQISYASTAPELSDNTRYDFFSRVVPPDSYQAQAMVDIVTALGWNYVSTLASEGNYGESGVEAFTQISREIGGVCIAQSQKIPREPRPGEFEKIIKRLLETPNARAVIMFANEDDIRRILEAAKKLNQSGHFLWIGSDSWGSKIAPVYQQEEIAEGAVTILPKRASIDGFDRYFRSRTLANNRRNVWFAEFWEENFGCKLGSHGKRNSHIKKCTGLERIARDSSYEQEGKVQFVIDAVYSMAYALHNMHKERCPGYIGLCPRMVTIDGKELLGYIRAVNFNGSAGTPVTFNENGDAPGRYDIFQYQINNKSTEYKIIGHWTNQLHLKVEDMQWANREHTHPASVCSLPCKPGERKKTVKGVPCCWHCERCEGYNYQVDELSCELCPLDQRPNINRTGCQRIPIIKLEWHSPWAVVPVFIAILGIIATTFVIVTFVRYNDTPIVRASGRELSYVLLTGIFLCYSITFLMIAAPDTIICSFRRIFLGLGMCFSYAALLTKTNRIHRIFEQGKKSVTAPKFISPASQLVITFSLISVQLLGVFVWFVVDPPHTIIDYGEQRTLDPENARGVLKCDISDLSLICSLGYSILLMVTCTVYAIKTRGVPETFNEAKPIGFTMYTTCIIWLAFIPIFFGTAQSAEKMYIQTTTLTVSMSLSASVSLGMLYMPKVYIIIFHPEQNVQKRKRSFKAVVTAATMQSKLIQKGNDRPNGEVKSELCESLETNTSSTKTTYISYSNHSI

Going from `COc1ccc(C(=O)Nc2ccc3c(c2)C(=O)c2ccccc2C3=O)cc1OC` to `CC(=O)c1cccc(NC(=O)COC(=O)c2cccc(N3C(=O)c4ccccc4C3=O)c2)c1`, the z-score rises from -0.209 to 0.155.

First: CCOC(=O)/C=C/C(=O)OCC(=O)Nc1ccc(OC)c(Cl)c1
Second: CCOC(=O)C1=NNC(C(=O)c2ccccc2)C1c1ccc(OC)cc1 (stereo not given)
The z-score of the first is higher: -0.0911 for the first, -0.587 for the second.

Going from `CCCCCCc1nc2ccccc2c(=O)n1N` to `Cc1nc2c(C(=O)NCCC(C)C)c[nH]n2c(=O)c1Cc1ccccc1F`, the z-score falls from -0.112 to -1.03.

Compared with `Cc1cc(C)nc(N(C#N)CCOc2ccc(Cl)cc2)n1`, `CCOc1ccc(N(CC(=O)N2CCc3ccccc32)S(=O)(=O)c2c(C)noc2C)cc1` is higher in z-score: -1.19 for the first, -0.356 for the second.

First: CC(C)(C)SCCNC(=O)c1ccccc1
Second: CC(C)(C)NC(=O)CN1CCC(O)(c2ccccc2)CC1
The z-score of the first is higher: 0.363 for the first, -0.263 for the second.

Compared with `COc1ccc(C2CC(=O)N3C(=C2C#N)SCC3(O)c2ccccc2)cc1` (stereo not given), `O=C1CC(c2ccc(F)cc2)CC(O)=C1C1NCCc2ccccc21` (stereo not given) is higher in z-score: -0.459 for the first, 1.81 for the second.

First: O=C(Nc1ccc(Cc2ccncc2)cc1)C1CCC(N2C(=O)C3CC=CCC3C2=O)CC1 (stereo not given)
Second: CC(=O)Nc1ccc(N=Nc2ccc(O)cc2)cc1
The z-score of the first is lower: -0.702 for the first, -0.0923 for the second.

Compared with `O=C(CSc1nnc(-c2ccc(O)cc2)n1Cc1ccco1)c1ccccc1`, `O=C(NNC(=O)c1ccc(-c2ccccc2)cc1)c1ccccc1` is higher in z-score: -0.622 for the first, 0.168 for the second.

Going from `O=C(CCl)N(c1ccc(Cl)cc1)c1c[nH]c2ccccc12` to `CC(NC(=O)/C=C/c1ccc(Br)cc1)c1ccccc1` (stereo not given), the z-score falls from -0.186 to -0.285.

Going from `COc1ccccc1NC(=O)C1=C(C)Nc2nnnn2C1c1ccccn1` (stereo not given) to `CC(=O)Nc1cnc(NC(=O)c2cccc(F)c2)cc1C`, the z-score rises from -0.207 to 0.483.

Going from `O=C(O)COc1ccc2c3c(c(=O)oc2c1)CCC3` to `Cc1nc2c(C(=O)N3CCOCC3)cnn2c(C)c1Cc1cccc(Cl)c1`, the z-score rises from -0.0993 to 0.156.

First: Cc1sc2ncnc(NCCCO)c2c1C
Second: CCc1nnc(NC(=O)CSc2nnc(-c3ccco3)n2C)s1
The z-score of the first is higher: 0.0603 for the first, -0.0388 for the second.

Compared with `CC1CC(C)CN(CC(=O)Nc2ccc3c(c2)OCCO3)C1` (stereo not given), `Cc1sc(NC(=O)C2C3C=CC(C3)C2C(=O)O)c(C(N)=O)c1-c1ccc(C(C)C)cc1` (stereo not given) is higher in z-score: -0.603 for the first, -0.404 for the second.

Going from `O=C(Nc1cccc(S(=O)(=O)NCc2ccco2)c1)c1cc(-c2ccc(F)cc2)nc2ccccc12` to `CN1C(=O)/C(=C\c2ccccc2)Sc2ccc(C(=O)N3CCN(c4ccccn4)CC3)cc21`, the z-score falls from 1.28 to -0.549.

`C/C(=N/O)c1c(O)c(C)c(-c2ccccc2)n(-c2ccccc2)c1=O` was tested, and the z-score was -0.717.

`O=C(NC(=S)Nc1ccc(N2CCOCC2)cc1)c1ccco1` was tested, and the z-score was active: 3.46.
